Assay results reported in the supplement of paper PMC12217912.
The list shows a part of the results. The full chains were built here from the parent and the listed change. Inactive controls read about 0.05.

B1: TEV protease; numbered along this chain (parent)
chain: MGESLFKGPRDYNPISSSICHLTNESDGHTTSLYGIGFGPFIITNKHLFRRNNGTLVVQSLHGVFKVKDTTTLQQHLVDGRDMIIIRMPKDFPPFPQKLKFREPQREERICLVTTNFQTKSMSSMVSDTSCTFPSGDGIFWKHWIQTKDGQCGSPLVSTRDGFIVGIHSASNFTNTNNYFTSVPKNFMELLTNQEAQQWVSGWRLNADSVLWGGHKVFMVKPEEPFQPVKEATQL

Variants of: B1
Assay: raw area under fraction-flipped curve 0-4 h after induction (AUC4h, not background-subtracted), DNA-recorder readout of cleavage of the substrate (dimensionless); higher = more cleavage of the substrate by the protease variant
Details: temperature: 34 °C; time window: 0-4 h after rhamnose induction
Experimental: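 In vivo DNA recorder in E. coli TOP10(DE3) ΔrhaA at 34 °C. Each TEVp single-site mutant (parent TEVp 0) is paired with a single-site variant of the 7-mer TEVs (canonical ENLYFQ|S). The substrate sits between flexible linkers in a Bxb1-sfGFP-TEVs-SsrA fusion, so cleavage stabilises Bxb1 and speeds flipping of a recombination array, read by NGS. The value is the raw area under the fraction-flipped curve over 0-4 h after rhamnose induction (AUC4h), with ≥20 reads per time point. It is not background-subtracted; inactive controls average about 0.047.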
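Note: Bxb1 expression induced with 0.2% (w/v) L-rhamnose at OD600 near 0.5, cultures sampled hourly, flipped fraction per protease–substrate barcode pair counted by paired-end Illumina sequencing.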

| Variant | area with substrate ENLYFAS | area with substrate ENLYFCS | area with substrate ENLYFFS | area with substrate ENLYFHS | area with substrate ENLYFIS | area with substrate ENLYFKS | area with substrate ENLYFNS | area with substrate ENLYFPS | area with substrate ENLYFRS | area with substrate ENLYFES | area with substrate ENLYFGS | area with substrate ENLYFMS | area with substrate ENLYFSS | area with substrate ENLYFTS | area with substrate ENLYFVS | area with substrate ENLYFYS | area with substrate ENLYFDS | area with substrate ENLYFLS | area with substrate ENLYFWS |
| --- | --- | --- | --- | --- | --- | --- | --- | --- | --- | --- | --- | --- | --- | --- | --- | --- | --- | --- | --- |
| W144F | 0.058 | 0.0613 | 0.0785 | 0.064 | 0.0601 | 0.0869 | 0.0745 | 0.0643 | 0.055 | – | – | – | – | – | – | – | – | – | – |
| W144G | 0.0547 | 0.0572 | 0.0739 | 0.0719 | 0.0692 | 0.0474 | 0.0666 | 0.0714 | 0.0581 | 0.0673 | 0.0596 | 0.0648 | 0.0501 | 0.069 | 0.0568 | 0.0694 | – | – | – |
| I145R | 0.0492 | 0.0737 | 0.0635 | – | 0.0613 | – | 0.0551 | 0.0031 | 0.0717 | 0.0681 | – | 0.0649 | – | 0.0546 | 0.0586 | 0.0589 | 0.0557 | 0.0445 | 0.0443 |
| I145T | 0.0583 | 0.0676 | 0.07 | 0.065 | 0.05 | 0.0547 | 0.0622 | 0.0605 | 0.0463 | 0.0638 | – | 0.0649 | 0.0738 | 0.0582 | 0.147 | 0.0511 | 0.0604 | 0.0566 | 0.0847 |
| D149G | 0.0483 | 0.0433 | 0.0786 | 0.0591 | 0.0496 | 0.0704 | – | 0.0611 | 0.0565 | 0.0702 | – | 0.0545 | 0.043 | – | 0.0255 | – | – | 0.0711 | 0.0564 |
| D149R | 0.0531 | 0.0566 | 0.0697 | – | 0.0552 | – | – | 0.0602 | – | 0.0556 | – | 0.0569 | – | 0.0713 | – | – | – | – | 0.0596 |
| G150C | 0.0638 | 0.0576 | 0.0644 | 0.0525 | 0.0651 | 0.0626 | 0.0495 | 0.0688 | 0.0362 | 0.0624 | – | 0.0637 | – | 0.0597 | 0.0587 | 0.0464 | – | 0.0618 | 0.0545 |
| G150T | 0.0609 | 0.0665 | 0.0695 | 0.0592 | 0.0585 | 0.0553 | 0.0564 | 0.0662 | 0.0608 | 0.0585 | – | 0.0527 | 0.0518 | 0.0569 | 0.0495 | 0.0551 | 0.0397 | 0.0601 | 0.0559 |
| C152R | 0.0589 | 0.0513 | 0.0695 | 0.0567 | 0.0692 | 0.0614 | 0.0633 | 0.0576 | 0.058 | – | – | 0.0544 | – | 0.0637 | 0.0452 | 0.0567 | – | – | – |
| C152T | 0.0697 | 0.0581 | 0.0677 | 0.0652 | 0.0704 | – | – | 0.058 | – | 0.047 | 0.081 | 0.0432 | 0.107 | 0.058 | – | – | – | 0.0555 | – |
| G153V | 0.0393 | 0.0512 | 0.0443 | 0.0473 | 0.047 | 0.0426 | 0.0453 | 0.0519 | 0.048 | – | – | 0.0366 | 0.051 | 0.0531 | – | – | – | 0.0477 | – |
| P155Q | 0.0418 | 0.0556 | 0.0557 | 0.0511 | 0.0528 | 0.0568 | – | 0.0493 | 0.0502 | 0.0394 | 0.043 | 0.0518 | 0.0522 | 0.0542 | 0.0529 | 0.0505 | 0.056 | – | 0.0602 |
| L156N | 0.0656 | 0.0498 | 0.0607 | 0.0501 | 0.0403 | 0.0566 | 0.0447 | 0.0514 | 0.0639 | 0.0435 | 0.0551 | 0.0507 | 0.0476 | – | 0.0546 | 0.0528 | 0.0599 | 0.0593 | 0.0422 |
| V157G | 0.0445 | 0.0457 | 0.0586 | 0.0429 | 0.0468 | 0.0479 | 0.0598 | 0.0692 | – | 0.0632 | – | 0.0783 | – | 0.0542 | 0.0624 | 0.0485 | – | – | – |
| R160C | 0.0581 | – | 0.0681 | 0.061 | 0.0522 | 0.0491 | 0.051 | 0.0574 | – | 0.064 | 0.0603 | – | 0.0589 | 0.0754 | 0.0521 | 0.0544 | – | – | 0.0574 |
| R160E | 0.0302 | 0.0542 | – | 0.0664 | 0.0601 | 0.0584 | 0.0579 | 0.0631 | 0.0599 | 0.0663 | 0.0698 | 0.0742 | 0.0734 | 0.0593 | 0.0362 | 0.0647 | 0.0442 | 0.0959 | 0.0689 |
| R160G | 0.0609 | 0.0414 | – | 0.0564 | 0.0605 | – | 0.0573 | 0.0664 | 0.0527 | 0.066 | – | 0.0641 | 0.0718 | 0.0725 | 0.0563 | – | – | – | 0.06 |
| R160Q | 0.0592 | – | 0.0642 | 0.0535 | – | – | 0.061 | 0.0616 | 0.0643 | 0.0789 | – | 0.0579 | – | 0.0517 | 0.0579 | – | 0.0909 | – | 0.0582 |
| R160T | 0.0336 | – | – | – | 0.0557 | 0.0644 | – | 0.0765 | 0.0679 | – | – | 0.0612 | 0.064 | 0.0597 | – | 0.0617 | – | 0.0623 | – |
| D161Q | 0.0278 | 0.054 | 0.0626 | 0.0485 | 0.0429 | – | – | 0.0515 | 0.0567 | 0.0557 | 0.0636 | 0.0403 | 0.0396 | 0.0461 | – | – | 0.0505 | 0.052 | – |
| I164F | 0.0599 | – | 0.036 | – | 0.0306 | – | 0.061 | 0.131 | – | – | – | – | – | – | – | – | – | – | 0.0352 |
| V165C | 0.0363 | – | 0.0677 | – | 0.0555 | – | 0.0655 | 0.0548 | – | 0.0621 | 0.0605 | 0.0531 | 0.0582 | 0.0477 | 0.0536 | 0.0732 | 0.058 | – | 0.0648 |
| G166C | 0.047 | 0.0584 | 0.0648 | – | 0.0534 | 0.0283 | 0.0509 | 0.0537 | 0.0577 | 0.0522 | 0.0605 | 0.062 | 0.0477 | 0.053 | – | 0.0497 | – | 0.0607 | 0.0479 |
| I167D | 0.0524 | 0.05 | 0.0573 | – | – | 0.0425 | 0.039 | 0.0534 | – | 0.0507 | – | 0.0158 | – | 0.0585 | – | 0.0464 | 0.0621 | 0.0475 | – |
| I167E | 0.0521 | 0.0471 | 0.0605 | – | 0.102 | 0.0464 | – | 0.0274 | – | – | – | 0.0564 | 0.044 | 0.05 | – | – | – | – | 0.0618 |
| H168P | 0.0628 | – | 0.0645 | – | 0.057 | – | 0.0451 | 0.0545 | 0.0526 | – | – | 0.0438 | 0.0489 | – | – | – | – | – | 0.0554 |
